# Test results taken from the supplement of paper PMC12217912.
# The other results are listed elsewhere or left out. Sequences were assembled here from the parent chain. Inactive controls read about 0.05.
# B1: TEV protease; numbered along this chain (parent)
# chain: MGESLFKGPRDYNPISSSICHLTNESDGHTTSLYGIGFGPFIITNKHLFRRNNGTLVVQSLHGVFKVKDTTTLQQHLVDGRDMIIIRMPKDFPPFPQKLKFREPQREERICLVTTNFQTKSMSSMVSDTSCTFPSGDGIFWKHWIQTKDGQCGSPLVSTRDGFIVGIHSASNFTNTNNYFTSVPKNFMELLTNQEAQQWVSGWRLNADSVLWGGHKVFMVKPEEPFQPVKEATQL
# Variants of: B1
# Experiment: raw area under fraction-flipped curve 0-4 h after induction (AUC4h, not background-subtracted), DNA-recorder readout of cleavage of the substrate (dimensionless); higher = more cleavage of the substrate by the protease variant
# Conditions: temperature: 34 °C; time window: 0-4 h after rhamnose induction
# Procedure: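 In vivo DNA recorder in E. coli TOP10(DE3) ΔrhaA at 34 °C. Each TEVp single-site mutant (parent TEVp 0) is paired with a single-site variant of the 7-mer TEVs (canonical ENLYFQ|S). The substrate sits between flexible linkers in a Bxb1-sfGFP-TEVs-SsrA fusion, so cleavage stabilises Bxb1 and speeds flipping of a recombination array, read by NGS. The value is the raw area under the fraction-flipped curve over 0-4 h after rhamnose induction (AUC4h), with ≥20 reads per time point. It is not background-subtracted; inactive controls average about 0.047.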
# 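Further: Bxb1 expression induced with 0.2% (w/v) L-rhamnose at OD600 near 0.5, cultures sampled hourly, flipped fraction per protease–substrate barcode pair counted by paired-end Illumina sequencing.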
Variant,area with substrate DNLYFQS,area with substrate FNLYFQS,area with substrate GNLYFQS,area with substrate HNLYFQS,area with substrate MNLYFQS,area with substrate PNLYFQS,area with substrate TNLYFQS,area with substrate WNLYFQS,area with substrate YNLYFQS,area with substrate INLYFQS,area with substrate KNLYFQS,area with substrate LNLYFQS,area with substrate NNLYFQS,area with substrate RNLYFQS,area with substrate SNLYFQS,area with substrate VNLYFQS,area with substrate QNLYFQS
R50A,0.0828,0.0468,0.0732,0.0759,0.0629,0.0688,0.0708,0.055,0.0643,,,,,,,,
V57P,0.0595,0.0503,,,0.038,,0.0512,0.0439,0.0394,0.0453,0.0505,0.0464,,,,,
V57H,0.0602,0.0627,,,,0.069,0.0683,0.0821,,0.0705,0.0869,0.0597,0.062,,,,
V57F,0.0657,,0.0544,0.065,,0.0631,0.064,0.0607,,0.0474,,,0.0783,0.0516,0.0645,0.08,
Q74N,0.0877,,0.0893,,,0.0488,0.119,0.0522,,0.0379,0.0517,,,,0.0727,,
Q74T,0.0753,0.0628,0.059,0.0566,,,0.0454,0.0655,,,0.0412,0.0532,0.051,0.0352,,0.0684,
Q74L,0.0497,,,0.0651,,0.0577,,0.065,,,,,,,0.0554,,
R51T,0.0941,,,0.0663,0.0871,0.0922,0.0651,0.0496,,,,0.054,0.0821,0.0566,,,
R51V,0.0696,0.0741,0.0717,0.0639,,0.0645,0.0639,0.0513,0.0588,0.0564,,0.068,,,0.0686,0.0695,
R51E,0.0822,0.0581,0.0837,0.0635,0.0742,,0.0664,0.0613,,0.0693,,0.0575,0.0561,,,,
R51D,0.0675,,,,0.0714,0.0607,,0.0687,0.0558,,,,,,,0.0595,
R51Q,0.0932,0.0514,0.121,0.0673,0.062,0.0682,0.075,0.0629,0.0651,0.11,0.069,,0.0702,,,,
F38S,0.0551,,0.0579,0.0528,0.0594,0.0608,0.041,0.0524,0.066,,,0.0514,,,0.0555,,
T55P,0.0629,0.0798,0.052,0.0657,0.0514,0.0746,0.0645,0.0555,,0.0596,,0.08,0.0666,,,,0.0529
T55R,0.0947,,,0.0567,,0.0792,0.061,0.06,,0.0667,0.0665,,,,0.0762,0.0582,
T55W,0.082,,,0.0845,,0.055,0.0634,0.0564,0.0436,0.0676,0.0832,0.052,0.0721,,,0.0888,0.072
G63P,0.0649,,0.0573,0.0598,,0.0501,0.045,0.0471,0.0537,,0.0537,0.0457,,0.054,,,0.0452
